For three molecules, binding results are on record in article PMC6737914.

By UniProt entry, the sequences of proteins in these tests, tags left out. Where a name states a change or a piece, a line headed by the entry shows the natural chain unless it says otherwise.
UniProt P38682: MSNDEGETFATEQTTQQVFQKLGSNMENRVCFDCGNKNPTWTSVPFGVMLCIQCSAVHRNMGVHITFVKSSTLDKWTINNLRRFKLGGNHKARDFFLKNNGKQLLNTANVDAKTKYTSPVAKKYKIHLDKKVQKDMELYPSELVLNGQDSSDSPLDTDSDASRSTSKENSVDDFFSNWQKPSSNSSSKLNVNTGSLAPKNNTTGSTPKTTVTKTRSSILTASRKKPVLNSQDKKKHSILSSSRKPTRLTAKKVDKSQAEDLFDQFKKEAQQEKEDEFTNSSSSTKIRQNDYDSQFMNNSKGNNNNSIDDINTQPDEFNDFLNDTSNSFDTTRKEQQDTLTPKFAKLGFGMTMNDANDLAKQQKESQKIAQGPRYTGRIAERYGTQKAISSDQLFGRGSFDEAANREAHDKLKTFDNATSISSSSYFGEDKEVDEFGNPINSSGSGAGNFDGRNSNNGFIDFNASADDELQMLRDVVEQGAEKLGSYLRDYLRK
UniProt P53622: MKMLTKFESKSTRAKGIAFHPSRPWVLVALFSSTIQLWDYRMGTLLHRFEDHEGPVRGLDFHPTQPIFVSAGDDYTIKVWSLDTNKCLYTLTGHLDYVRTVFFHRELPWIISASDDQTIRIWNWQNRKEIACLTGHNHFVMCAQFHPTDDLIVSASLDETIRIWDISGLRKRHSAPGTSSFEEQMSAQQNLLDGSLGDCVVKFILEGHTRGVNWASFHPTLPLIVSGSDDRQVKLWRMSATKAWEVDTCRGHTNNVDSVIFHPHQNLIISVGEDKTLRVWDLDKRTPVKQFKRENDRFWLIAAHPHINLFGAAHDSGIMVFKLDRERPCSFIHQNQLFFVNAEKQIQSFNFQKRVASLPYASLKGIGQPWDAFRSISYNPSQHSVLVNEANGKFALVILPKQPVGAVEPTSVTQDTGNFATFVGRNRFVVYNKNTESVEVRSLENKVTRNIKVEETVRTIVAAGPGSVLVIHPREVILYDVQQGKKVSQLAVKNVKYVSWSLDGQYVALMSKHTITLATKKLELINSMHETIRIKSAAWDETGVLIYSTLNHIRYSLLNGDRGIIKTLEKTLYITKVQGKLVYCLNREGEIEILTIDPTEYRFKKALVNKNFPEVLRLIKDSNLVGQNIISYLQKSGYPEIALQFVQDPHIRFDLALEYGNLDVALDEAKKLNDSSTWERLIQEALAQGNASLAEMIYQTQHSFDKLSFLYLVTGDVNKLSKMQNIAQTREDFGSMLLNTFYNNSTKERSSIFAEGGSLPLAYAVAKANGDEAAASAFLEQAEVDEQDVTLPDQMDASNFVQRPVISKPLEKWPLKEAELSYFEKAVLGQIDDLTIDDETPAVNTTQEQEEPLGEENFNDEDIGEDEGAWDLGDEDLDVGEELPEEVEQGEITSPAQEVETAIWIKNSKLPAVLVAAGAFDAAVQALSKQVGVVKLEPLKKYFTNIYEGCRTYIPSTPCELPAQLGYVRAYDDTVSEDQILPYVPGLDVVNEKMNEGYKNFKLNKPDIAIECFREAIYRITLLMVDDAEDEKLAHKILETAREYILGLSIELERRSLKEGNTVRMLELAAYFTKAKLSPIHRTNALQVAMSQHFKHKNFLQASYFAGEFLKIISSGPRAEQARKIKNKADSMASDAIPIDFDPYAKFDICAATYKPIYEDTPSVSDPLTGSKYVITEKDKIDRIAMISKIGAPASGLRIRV

Substitutions are numbered along the chain they refer to. Names and notes keep the numbering of the source. No constants are given. Whether binding was seen depends on the method and setting. Binding seen in cells or lysates may run through a third protein. Some entries that bind do so weakly or less than the wild type.

Assay [1] deals with Glo3 (bait of the affinity purification following stabilising crosslinking) (S. cerevisiae) (UniProt P38682). Kind of assay: cross-linking; affinity purification following stabilising crosslinking (Fig. S3A-E; details not shown).
Substrate in assay [2]: COPI coat (coatomer), heptamer of α, β′, ε, β, γ, δ and ζ subunits (S. cerevisiae (endogenous in S. cerevisiae)) (UniProt P53622)
Briefly: co-IP; affinity chromatography of GFP-tagged Glo3 or its variants on µMACS GFP micro-beads from detergent extracts (1% Triton X-100) of Δglo3 or Δgcs1 strains; western blots for COPI and Gcs1.

In assay [3] the target is GFP-tagged Glo3 (S. cerevisiae) (UniProt P38682). Described as above.

B1: S. cerevisiae Snf1 (enzyme, UniProt P06782 1-633)
chain: MSSNNNTNTAPANANSSHHHHHHHHHHHHHGHGGSNSTLNNPKSSLADGAHIGNYQIVKTLGEGSFGKVKLAYHTTTGQKVALKIINKKVLAKSDMQGRIEREISYLRLLRHPHIIKLYDVIKSKDEIIMVIEYAGNELFDYIVQRDKMSEQEARRFFQQIISAVEYCHRHKIVHRDLKPENLLLDEHLNVKIADFGLSNIMTDGNFLKTSCGSPNYAAPEVISGKLYAGPEVDVWSCGVILYVMLCRRLPFDDESIPVLFKNISNGVYTLPKFLSPGAAGLIKRMLIVNPLNRISIHEIMQDDWFKVDLPEYLLPPDLKPHPEEENENNDSKKDGSSPDNDEIDDNLVNILSSTMGYEKDEIYESLESSEDTPAFNEIRDAYMLIKENKSLIKDMKANKSVSDELDTFLSQSPPTFQQQSKSHQKSQVDHETAKQHARRMASAITQQRTYHQSPFMDQYKEEDSTVSILPTSLPQIHRANMLAQGSPAASKISPLVTKKSKTRWHFGIRSRSYPLDVMGEIYIALKNLGAEWAKPSEEDLWTIKLRWKYDIGNKTNTNEKIPDLMKMVIQLFQIETNNYLVDFKFDGWESSYGDDTTVSNISEDEMSTFSAYPFLHLTTKLIMELAVNSQSN
For the molecule B1, the binding entry in assay [1] was “binds”.

B2: overexpressed Gcs1 R54K, GAP-dead mutant of Gcs1 (protein, UniProt P35197 1-352)
chain: MSDWKVDPDTRRRLLQLQKIGANKKCMDCGAPNPQWATPKFGAFICLECAGIHKGLGVHISFVRSITMDQFKPEELLRMEKGGNEPLTEWFKSHNIDLSLPQKVKYDNPVAEDYKEKLTCLCEDRVFEEREHLDFDASKLSATSQTAASATPGVAQSREGTPLENRRSATPANSSNGANFQKEKNEAYFAELGKKNQSRPDHLPPSQGGKYQGFGSTPAKPPQERSAGSSNTLSLENFQADPLGTLSRGWGLFSSAVTKSFEDVNETVIKPHVQQWQSGELSEETKRAAAQFGQKFQETSSYGFQAFSNFTKNFNGNAEDSSTAGNTTHTEYQKIDNNDKKNEQDEDKWDDF
As for B2, the binding result in assay [2] is reported as “binds”.

B3: endogenous Gcs1 (protein, UniProt P35197 1-352)
chain: B2 chain with K54R
B3: the binding result in assay [3] is on record as “no binding”.
